Data reported in a collection of fitness landscapes (doi:10.1016/j.celrep.2020.107928).
Over roughly 81,000 sequences, “one-hybrid fitness for binding parS DNA” has its median near -0.17; the highest 2% begin near 0.51. The list shows a part of the results.

B1: Caulobacter ParB omega fusion; a variant is named by its letters at X, in order, B8GW30 (parent)
chain: MESVVVGEPGMSEGRRGLGRGLSALLGEVDAAPAQAPGEQLGGSREAPIEILQRNPDQPRRTFREEDLEDLSNSIREKGVLQPILVRPSPDTAGEYQIVAGERAWRAAQRAGLKTVPIMVRELDDLAVLEIGIIENVQRADLNVLEEALSYKVLMEKFERTQENIAQTIGKSXSHVANXMRLLXLPDEVQSYLVSGELTAXHARAIAAAADPVALAKQIIEGGLSVRETEALARKAPNLSAGKSKGGRPPRVKDTDTQALESDLSSVLGLDVSIDHRGSTGTLTITYATLEQLDDLCNRLTRGI

Variants of: B1
Experiment: one-hybrid fitness for binding parS DNA (scaled: cognate 1, non-cognate 0); higher = stronger binding
Details: with parS DNA site
Method in brief: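 In E. coli USO, a HIS3 reporter with its site placed 19 bp from the promoter was used to select Caulobacter ParB variants randomised at four specificity codons. Growth lasted 48 hours at 37°C on histidine-free M9 containing 0.1 mM IPTG and 5 mM 3-AT. Fitness was taken as the log change in variant-to-wild-type read ratio from Illumina sequencing of pre- and post-selection plasmids, rescaled between the non-cognate and cognate sites.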

Variant | one-hybrid fitness for binding parS DNA
PVDI | ≤ 0.2
RYHF | ≤ 0.2
QYHT | ≤ 0.2
SYKH | ≤ 0.2
WENR | ≤ 0.2
RRGG | 0.698
TLWC | ≤ 0.2
ATRI | ≤ 0.2
DDYR | ≤ 0.2
VLFT | ≤ 0.2
KLGL | ≤ 0.2
WLNP | ≤ 0.2
HSVN | ≤ 0.2
SFRG | ≤ 0.2
PLAF | ≤ 0.2
RADS | 0.966
YLRA | ≤ 0.2
LYCR | ≤ 0.2
PGED | ≤ 0.2
QHQR | ≤ 0.2
PCST | ≤ 0.2
VNPR | ≤ 0.2
ICCS | ≤ 0.2
EGEG | 0.214

Variant | one-hybrid fitness for binding parS DNA
YASN | ≤ 0.2
SLDG | ≤ 0.2
MRKT | ≤ 0.2
PSGL | ≤ 0.2
NGLP | ≤ 0.2
PRKG | ≤ 0.2
RYCH | 0.223
YTYT | ≤ 0.2
ETQR | ≤ 0.2
VRRL | ≤ 0.2
PVSA | ≤ 0.2
ADVY | ≤ 0.2
PCAF | ≤ 0.2
PQPC | ≤ 0.2
QMRW | ≤ 0.2
MEFS | ≤ 0.2
FFVP | ≤ 0.2
TTGN | ≤ 0.2
MSCG | ≤ 0.2
GWYW | ≤ 0.2
CRPT | ≤ 0.2
MFLN | ≤ 0.2
HSAM | ≤ 0.2
TMVG | ≤ 0.2

Variant | one-hybrid fitness for binding parS DNA
RHFI | ≤ 0.2
VTER | ≤ 0.2
MHFG | ≤ 0.2
PAFR | ≤ 0.2
VVDL | ≤ 0.2
QMWD | ≤ 0.2
LCHL | ≤ 0.2
HKWV | ≤ 0.2
VHYR | ≤ 0.2
RLLH | 0.248
CRQL | ≤ 0.2
LVPE | ≤ 0.2
IHPT | ≤ 0.2
MEVV | ≤ 0.2
RNVI | ≤ 0.2
PYRS | ≤ 0.2
SELS | ≤ 0.2
NRKS | ≤ 0.2
LKDF | ≤ 0.2
SWFR | ≤ 0.2
YQLS | ≤ 0.2
RFGL | ≤ 0.2
NTQA | ≤ 0.2
KRIS | ≤ 0.2

Variant | one-hybrid fitness for binding parS DNA
DSKR | ≤ 0.2
QANM | ≤ 0.2
WVRF | ≤ 0.2
TTAK | ≤ 0.2
AFNT | ≤ 0.2
DITP | ≤ 0.2
QMRD | ≤ 0.2
ITTR | ≤ 0.2
SRIR | ≤ 0.2
CTLG | ≤ 0.2
FHGR | ≤ 0.2
QKKD | ≤ 0.2
PSVK | ≤ 0.2
AEVH | ≤ 0.2
RVSP | ≤ 0.2
SDAI | ≤ 0.2
RVVL | ≤ 0.2
CCAS | ≤ 0.2
MRDY | ≤ 0.2
ISCR | ≤ 0.2
KVIR | ≤ 0.2
YLRG | ≤ 0.2
DPNS | ≤ 0.2
RFES | 0.881

Variant | one-hybrid fitness for binding parS DNA
TVHS | ≤ 0.2
TYYV | ≤ 0.2
EGMS | ≤ 0.2
NNND | ≤ 0.2
FNQD | ≤ 0.2
YEWR | ≤ 0.2
RSDF | ≤ 0.2
MQTM | ≤ 0.2
WRGI | ≤ 0.2
QPSN | ≤ 0.2
ESSL | ≤ 0.2
LERT | ≤ 0.2
QLGR | ≤ 0.2
FSIS | ≤ 0.2
WAME | 0.301
HHLR | ≤ 0.2
SSHS | ≤ 0.2
SHSE | ≤ 0.2
HKGG | ≤ 0.2
PAPD | ≤ 0.2
RKNF | ≤ 0.2
HPPK | ≤ 0.2
NNTC | ≤ 0.2
PPNS | ≤ 0.2

Variant | one-hybrid fitness for binding parS DNA
RIFI | ≤ 0.2
ETSE | ≤ 0.2
ERTN | ≤ 0.2
HLAR | ≤ 0.2
PFGK | ≤ 0.2
PLAD | ≤ 0.2
SPTF | ≤ 0.2
DDVV | ≤ 0.2
FAHM | ≤ 0.2
WDMR | ≤ 0.2
DHYT | ≤ 0.2
QYPW | ≤ 0.2
MMAG | ≤ 0.2
FLFY | ≤ 0.2
VAKD | ≤ 0.2
KHMT | ≤ 0.2
LPRK | ≤ 0.2
RRSS | 0.653
QCFG | ≤ 0.2
RPWE | ≤ 0.2
YVNA | ≤ 0.2
SGLR | ≤ 0.2
EMHG | ≤ 0.2
SMQT | ≤ 0.2

Variant | one-hybrid fitness for binding parS DNA
WPKR | ≤ 0.2
CLAL | ≤ 0.2
VTLK | ≤ 0.2
QYEI | ≤ 0.2
STSS | ≤ 0.2
VHWG | ≤ 0.2
SRSR | ≤ 0.2
FELF | ≤ 0.2
PPSP | ≤ 0.2
GDRE | ≤ 0.2
QQHF | ≤ 0.2
RETT | ≤ 0.2
STRE | ≤ 0.2
RQSP | ≤ 0.2
GSDR | ≤ 0.2
HEGQ | ≤ 0.2
DSEG | ≤ 0.2
TDPL | ≤ 0.2
CRQN | ≤ 0.2
LCKF | ≤ 0.2
RYYY | 0.462
GCLC | ≤ 0.2
HRPT | ≤ 0.2
ACMG | ≤ 0.2

Variant | one-hybrid fitness for binding parS DNA
FCQG | ≤ 0.2
VQPE | ≤ 0.2
ILQG | ≤ 0.2
RICI | ≤ 0.2
LFQI | ≤ 0.2
LWHE | ≤ 0.2
AELI | ≤ 0.2
PNMF | ≤ 0.2
TRVK | ≤ 0.2
PAVG | ≤ 0.2
FWAT | ≤ 0.2
MMDR | ≤ 0.2
WTPL | ≤ 0.2
YINW | ≤ 0.2
LDPP | ≤ 0.2
AGVE | ≤ 0.2
MLHL | ≤ 0.2
ACER | ≤ 0.2
TCGT | ≤ 0.2
CLEC | ≤ 0.2
KSTG | ≤ 0.2
ISWG | ≤ 0.2
MNES | ≤ 0.2
EWGE | ≤ 0.2

Variant | one-hybrid fitness for binding parS DNA
YGLG | ≤ 0.2
RRPC | 0.796
RYRM | 0.328
VPPW | ≤ 0.2
HPLS | ≤ 0.2
GSAQ | ≤ 0.2
PVGS | ≤ 0.2
MMKW | ≤ 0.2
IYWV | ≤ 0.2
SHNF | ≤ 0.2
CMAR | ≤ 0.2
MANI | ≤ 0.2
RMFF | 0.206
MLSL | ≤ 0.2
QIIL | ≤ 0.2
RCKW | 0.367
SNSM | ≤ 0.2
AARR | ≤ 0.2
HRCP | ≤ 0.2
QLVK | ≤ 0.2
FSLD | ≤ 0.2
PHFA | ≤ 0.2
NKPR | ≤ 0.2
TFKT | ≤ 0.2

Variant | one-hybrid fitness for binding parS DNA
QSCD | ≤ 0.2
RQEF | 0.206
RFTT | 0.836
VAEG | ≤ 0.2
LRNL | ≤ 0.2
LRTL | ≤ 0.2
QYLD | ≤ 0.2
MQPC | ≤ 0.2
ITKG | ≤ 0.2
CVIT | ≤ 0.2
RGGD | ≤ 0.2
ATLD | ≤ 0.2
NFFS | ≤ 0.2
KYHR | ≤ 0.2
HSAL | ≤ 0.2
NIGL | ≤ 0.2
IRHC | ≤ 0.2
NHPC | ≤ 0.2
FNRL | ≤ 0.2
PQDT | ≤ 0.2
LTGS | ≤ 0.2
KGFR | ≤ 0.2
YAVQ | ≤ 0.2
GVTG | ≤ 0.2

Variant | one-hybrid fitness for binding parS DNA
YYVS | ≤ 0.2
MSCT | ≤ 0.2
SKRS | ≤ 0.2
GTHC | ≤ 0.2
RVKT | 0.761
QVYK | ≤ 0.2
RQFH | ≤ 0.2
NADI | ≤ 0.2
EISH | 0.24
RFRK | ≤ 0.2
SSDT | ≤ 0.2
PAFF | ≤ 0.2
YICV | ≤ 0.2
WVRS | ≤ 0.2
GKIC | ≤ 0.2
RCTQ | ≤ 0.2
NEQL | ≤ 0.2
QEGG | ≤ 0.2
KYYT | ≤ 0.2
GCLV | ≤ 0.2
PCSV | ≤ 0.2
DKIL | ≤ 0.2
IMIC | ≤ 0.2
QQFC | ≤ 0.2

Variant | one-hybrid fitness for binding parS DNA
QCIG | ≤ 0.2
GQKT | ≤ 0.2
MESD | ≤ 0.2
NDSR | ≤ 0.2
DKNC | ≤ 0.2
PWTD | ≤ 0.2
NPEN | ≤ 0.2
VYKD | ≤ 0.2
GTTT | ≤ 0.2
FSSV | ≤ 0.2
LMGL | ≤ 0.2
RVYF | 0.25
WSIC | ≤ 0.2
YLFF | ≤ 0.2
MAGE | ≤ 0.2
LYPN | ≤ 0.2
YATW | ≤ 0.2
GTGL | ≤ 0.2
PFAG | ≤ 0.2
SNFV | ≤ 0.2
GTVR | ≤ 0.2
FASC | ≤ 0.2
QDHL | ≤ 0.2
HKWS | ≤ 0.2

Variant | one-hybrid fitness for binding parS DNA
TASK | ≤ 0.2
LKSW | ≤ 0.2
TDRF | ≤ 0.2
EYIS | ≤ 0.2
QALP | ≤ 0.2
RSSG | 0.993
RNFR | ≤ 0.2
WMPG | ≤ 0.2
PYCR | ≤ 0.2
SWGS | ≤ 0.2
QFGL | ≤ 0.2
CVNS | ≤ 0.2
HREN | ≤ 0.2
TNEC | ≤ 0.2
ESVR | ≤ 0.2
LIGS | ≤ 0.2
MGSF | ≤ 0.2
QQPS | ≤ 0.2
